# Source: paper PMC4336329 (PLoS ONE, 2015)
# The campaign covered roughly 310,000 compounds. About 2,200 (0.71%) showed an effect of 50% or more. The effect is printed as a negative number. The list shows a part of the results.
# Biological target: human ether-à-go-go-related gene (hERG) potassium channel (human, UniProt Q12809)
# Experiment: primary screen, population patch clamp on CHO cells stably expressing hERG
# Sequence of human ether-à-go-go-related gene (hERG) potassium channel (Q12809 whole entry, looked up): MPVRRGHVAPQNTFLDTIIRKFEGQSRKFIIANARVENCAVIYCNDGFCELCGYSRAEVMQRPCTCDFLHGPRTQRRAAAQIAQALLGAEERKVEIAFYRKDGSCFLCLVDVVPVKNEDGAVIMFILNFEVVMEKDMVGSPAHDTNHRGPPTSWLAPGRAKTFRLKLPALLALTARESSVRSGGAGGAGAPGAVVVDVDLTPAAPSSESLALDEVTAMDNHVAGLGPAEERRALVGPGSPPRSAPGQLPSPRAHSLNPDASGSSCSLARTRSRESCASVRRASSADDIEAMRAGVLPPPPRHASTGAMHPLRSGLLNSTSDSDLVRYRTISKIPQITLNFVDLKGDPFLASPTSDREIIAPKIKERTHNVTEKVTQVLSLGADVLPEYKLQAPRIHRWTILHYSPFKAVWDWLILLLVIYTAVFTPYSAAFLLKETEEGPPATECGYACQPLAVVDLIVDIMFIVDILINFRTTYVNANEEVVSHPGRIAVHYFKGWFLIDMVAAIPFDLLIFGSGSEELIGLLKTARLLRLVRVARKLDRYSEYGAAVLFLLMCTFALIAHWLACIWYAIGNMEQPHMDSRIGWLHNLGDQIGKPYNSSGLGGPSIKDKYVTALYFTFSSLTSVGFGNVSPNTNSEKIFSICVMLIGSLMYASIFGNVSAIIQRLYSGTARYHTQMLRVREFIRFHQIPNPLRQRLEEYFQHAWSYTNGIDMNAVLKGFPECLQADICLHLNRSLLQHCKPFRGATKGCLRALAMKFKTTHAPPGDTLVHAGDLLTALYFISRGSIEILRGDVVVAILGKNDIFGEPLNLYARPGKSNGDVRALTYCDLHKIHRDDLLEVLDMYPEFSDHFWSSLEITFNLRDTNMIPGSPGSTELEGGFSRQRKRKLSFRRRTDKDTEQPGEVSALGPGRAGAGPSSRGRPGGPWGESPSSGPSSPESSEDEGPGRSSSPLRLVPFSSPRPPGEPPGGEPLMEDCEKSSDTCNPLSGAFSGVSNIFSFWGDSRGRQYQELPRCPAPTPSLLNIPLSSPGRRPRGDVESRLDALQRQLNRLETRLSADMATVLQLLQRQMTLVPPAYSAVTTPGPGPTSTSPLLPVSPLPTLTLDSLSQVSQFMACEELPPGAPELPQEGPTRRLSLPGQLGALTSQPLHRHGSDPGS
row,SMILES,"hERG current change (%, negative = inhibition) at 1uM [%]"
1,C/C(=N\NC(=O)c1ccoc1C)c1ccc(Br)s1,8.15
2,NC(=O)c1ccc(NC(=O)COC(=O)C2CC(=O)N(Cc3ccccc3)C2)cc1 (stereo not drawn),8.73
3,CCOC(=O)N1CCN(C(=O)CN2C(=O)NC(c3ccccc3)(c3ccccc3)C2=O)CC1,8.05
4,CCCCN1CCc2[nH]c(=S)[nH]c(=O)c2C1,8.77
5,NNC(=O)C1CCN(S(=O)(=O)c2ccc(Cl)cc2)CC1,15.2
6,COC(CN(C)C(C(=O)NC1CCCCC1)c1ccccc1)OC (stereo not drawn),3.32
7,COc1ccc(O)c(-c2[nH]ncc2C(=O)c2ccccc2)c1,10
8,CCOC(=O)C1CN(C(C)(C)C)C(=O)C1=O (stereo not drawn),16.2
9,Cc1nc(Cl)sc1C(=O)Nc1cccc(Cl)c1,24.2
10,COc1ccc(C2SCCN2S(=O)(=O)c2ccccc2)cc1 (stereo not drawn),5.35
11,COc1ccc(/C=C/C(=O)c2oc3ccc(F)cc3c2C)cc1,9.81
12,O=C(CCc1nnc2ccc(N3CCCC3)nn12)Nc1cc(F)ccc1F,-9.58
13,C[C@]12C=CC(=O)C=C1CC[C@@H]1C2[C@@H](O)C[C@@]2(C)C1CC[C@]2(O)C(=O)COC(=O)CCC(=O)O (stereo partly drawn),-0.804
14,Nc1nc(CSCCO)nc(Nc2ccc(F)cc2)n1,13.1
15,CC1(C)CC(=O)C2=C(C1)NC(=O)CC2c1cccc(F)c1 (stereo not drawn),-3.96
16,O=C(Nc1cc(Cl)ccc1Oc1ccccc1)c1cnccn1,13.6
17,O=C(CN1C(=O)COc2ccccc21)NCCCN1CCN(Cc2ccccc2)CC1,7
18,Cc1cn(C2OC(COC(=O)c3ccccc3)C(O)C2Cl)c(=O)[nH]c1=O (stereo not drawn),8.3
19,CC(=O)N(Cc1cccs1)Cc1cc2ccc(C)c(C)c2nc1Cl,13.1
20,O=C1C2ON(c3ccccc3)C(c3ccccc3F)C2C(=O)N1c1ccccc1 (stereo not drawn),5.18
21,Cc1onc(-c2c(F)cccc2Cl)c1C(=O)N1CCc2ccccc21,-12.8
22,CCc1nc(SCc2cccnc2)c(C#N)cc1C,-7.01
23,CCN1C(=O)c2cccc3c(S(=O)(=O)N4CCC(C)CC4)ccc1c23,7.25

row,SMILES,"hERG current change (%, negative = inhibition) at 1uM [%]"
1,CC(=O)Nc1ccc(NC(=O)CSc2nnc(C)c(=O)n2N)cc1,2.82
2,CS(=O)(=O)N1CCc2cc(C(=O)Nc3ccccc3Cl)ccc21,1.93
3,Cc1ccc(NS(=O)(=O)c2ccc3c(c2)NC(=O)CCS3)cc1F,13.1
4,CC(Cc1cccnc1)NC(=O)c1cc(COc2c(F)cccc2F)on1 (stereo not drawn),-0.158
5,CCC(=O)Oc1ccc(/C(CC)=C(\CC)c2ccc(OC(=O)CC)cc2)cc1,14.3
6,CCN1CCN(c2nc3c(c(=O)[nH]c(=O)n3C)n2CCCSc2ncccn2)CC1,3.05
7,Cc1ccccc1SCC(=O)Nc1ccc(N2CCOCC2)cc1,10.5
8,S=C(c1ccc(-c2ccccc2)cc1)N1CCOCC1,7.87
9,Cl.O=C(Cn1c(NCCCl)nc2ccccc21)c1ccc(Br)cc1,9.51
10,Br.C=CCN1C2=NCCCN2c2ccccc21,8.25
11,COc1cc(NC(=O)c2ccc(Br)cc2)ccc1NC(=O)c1cc2ccccc2o1,10.9
12,COc1cc(NC(=O)CSc2nnc3ccc(-c4cccnc4)nn23)cc(OC)c1,-2.35
13,Cl.NCC1(c2ccc3c(c2)OCCO3)CCCC1,-5.82
14,Cc1cccc(NC(=O)CSC2=NN3CCCC(=O)N=C3S2)c1C,8.16
15,Cc1cnc(C(=O)OCC(=O)N(Cc2ccccc2)C(C)C)cn1,14.4
16,NC(=S)N/N=C/c1ccc([N+](=O)[O-])cc1,4.45
17,Cc1nc2c(O)cccc2cc1CO,11.9
18,CC(C)OC(=O)NC(c1ccccc1)C(Cl)(Cl)Cl (stereo not drawn),-7.04
19,O=C(OCc1cn(-c2ccc(Cl)c(Cl)c2)nn1)c1ccccc1Cl,-8.64
20,CN(C(=O)c1ccc(=O)n(Cc2ccc(Cl)cc2)c1)c1ccccc1,13.3
21,O=C(NCCS(=O)(=O)NC1CCCC1)c1ccc(F)cc1,19
22,CCc1nc(C)cn1S(=O)(=O)c1cc(Br)c(C)cc1OC,4.97
